The list shows a part of the results. Single values of this set are uncertain. Values with irradiation are relative to irradiated vehicle.
How the values were obtained:
A549-Dual [1] = test: NF-kB reporter (SEAP) activity, viability-corrected, relative to vehicle (fold change vs vehicle); higher = more activation of STING-IRF / NF-kB immune response reporter
A549-Dual [2] = test: ISRE reporter (Lucia luciferase) activity, viability-corrected, relative to vehicle (fold change vs vehicle); higher = more activation of STING-IRF / NF-kB immune response reporter
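Throughout, for NF-kB reporter (SEAP) activity, viability-corrected, relative to vehicle: viability correction based on the alamar blue assay, with concentrations leaving 10% survival or less dropped.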

| Structure (SMILES) | NF-kB reporter (A549-Dual [1]; 0.1 µM, irradiation: 8 Gy/4 fr) | NF-kB reporter (A549-Dual [1]; 0.1 µM, irradiation: none) | NF-kB reporter (A549-Dual [1]; 0.3 µM, irradiation: 8 Gy/4 fr) | NF-kB reporter (A549-Dual [1]; 0.3 µM, irradiation: none) | NF-kB reporter (A549-Dual [1]; 1 µM, irradiation: 8 Gy/4 fr) | NF-kB reporter (A549-Dual [1]; 1 µM, irradiation: none) | NF-kB reporter (A549-Dual [1]; 3 µM, irradiation: 8 Gy/4 fr) | NF-kB reporter (A549-Dual [1]; 3 µM, irradiation: none) | NF-kB reporter (A549-Dual [1]; 10 µM, irradiation: 8 Gy/4 fr) | NF-kB reporter (A549-Dual [1]; 10 µM, irradiation: none) | ISRE reporter (A549-Dual [2]; 0.1 µM, irradiation: 8 Gy/4 fr) | ISRE reporter (A549-Dual [2]; 0.1 µM, irradiation: none) | ISRE reporter (A549-Dual [2]; 0.3 µM, irradiation: 8 Gy/4 fr) | ISRE reporter (A549-Dual [2]; 0.3 µM, irradiation: none) | ISRE reporter (A549-Dual [2]; 1 µM, irradiation: 8 Gy/4 fr) | ISRE reporter (A549-Dual [2]; 1 µM, irradiation: none) | ISRE reporter (A549-Dual [2]; 3 µM, irradiation: 8 Gy/4 fr) | ISRE reporter (A549-Dual [2]; 3 µM, irradiation: none) | ISRE reporter (A549-Dual [2]; 10 µM, irradiation: 8 Gy/4 fr) | ISRE reporter (A549-Dual [2]; 10 µM, irradiation: none) |
| --- | --- | --- | --- | --- | --- | --- | --- | --- | --- | --- | --- | --- | --- | --- | --- | --- | --- | --- | --- | --- |
| CC1CC(=O)CC2CCC3C4CCC(O)C4(C)CCC3C12C (stereo not drawn) [Mesterolone] | 1.03 | 0.921 | 0.843 | 1.09 | 0.917 | 1.2 | 0.893 | 1.03 | 0.865 | 0.995 | 0.876 | 0.781 | 0.874 | 0.846 | 0.914 | 0.755 | 0.785 | 0.636 | 0.803 | 0.807 |
| COc1cc2c(cc1O)CC1c3c(cc(O)c(OC)c3-2)CCN1C (stereo not drawn) [Boldine] | 1.04 | 1.27 | 1.17 | 1.01 | 1.26 | 0.965 | 1.24 | 0.918 | 0.975 | 1.17 | 1.07 | 0.931 | 1.03 | 0.705 | 0.862 | 0.785 | 0.797 | 0.967 | 1.01 | 0.856 |
| CC(C)C12OC1C1OC13C1(C)CCC4=C(COC4=O)C1CC1OC13C2O (stereo not drawn) [Triptolide (PG490)] | 1.41 | 2.12 | 0.814 | 3.06 | 2.32 | 1.99 | 3.05 | 1.64 | 1.71 | 3.07 | 0.1 | 2.34 | 0.314 | 0.588 | 0.103 | 0.408 | 0.0906 | 0.448 | 0.102 | 0.382 |
| Cc1cccc(C(C)c2c[nH]cn2)c1C.Cl (stereo not drawn) [Medetomidine HCl] | 0.807 | 1.09 | 0.799 | 1.06 | 0.93 | 0.845 | 0.952 | 0.942 | 0.93 | 0.979 | 0.874 | 0.798 | 0.827 | 0.818 | 0.641 | 0.783 | 0.811 | 0.993 | 0.775 | 1 |
| CC12CCC3C(CCC4=C(O)C(=O)CCC43C)C1CCC2=O (stereo not drawn) [Formestane] | 0.979 | 1.04 | 1.1 | 1.12 | 1.07 | 1.48 | 0.995 | 1.1 | 1 | 1.14 | 0.972 | 0.895 | 1.05 | 0.88 | 1.07 | 0.979 | 0.947 | 0.76 | 0.931 | 0.88 |
| CC12CCC3C(CC=C4CC(O)CCC43C)C1CCC2=O (stereo not drawn) [Dehydroepiandrosterone (DHEA)] | 0.913 | 0.66 | 0.99 | 0.656 | 1.02 | 0.745 | 0.584 | 0.836 | 0.629 | 1 | 0.903 | 0.972 | 0.783 | 0.896 | 0.961 | 0.943 | 0.742 | 0.856 | 0.744 | 0.787 |
| CC(C)[N+](C)(CCC(C(N)=O)(c1ccccc1)c1ccccc1)C(C)C.[I-] [Isopropamide Iodide] | 1.11 | 1.09 | 0.979 | 0.878 | 1.05 | 0.937 | 1.13 | 0.872 | 1.07 | 1.12 | 1.11 | 1.02 | 1.1 | 0.761 | 0.874 | 0.74 | 0.823 | 0.843 | 0.836 | 0.871 |
| CCC1(O)C(=O)OCc2c1cc1n(c2=O)Cc2cc3ccccc3nc2-1 (stereo not drawn) [Camptothecin] | 1.02 | 1.69 | 1.22 | 3 | 1.34 | 2.65 | 2.11 | 4.31 | 2.65 |  | 1.3 | 7.37 | 1.41 | 10.1 | 1.47 | 7.9 | 2.53 | 12.9 | 2.01 |  |
| Cc1c(N)nc(C(CC(N)=O)NCC(N)C(N)=O)nc1C(=O)NC(C(=O)NC(C)C(O)C(C)C(=O)NC(C(=O)NCCc1nc(-c2nc(C(=O)NCCC[S+](C)C)cs2)cs1)C(C)O)C(OC1OC(CO)C(O)C(O)C1OC1OC(CO)C(O)C(OC(N)=O)C1O)c1c[nH]cn1.O=S(=O)([O-])O (stereo not drawn) [Bleomycin sulfate] | 0.936 | 0.835 | 0.916 | 0.924 | 0.781 | 0.831 | 0.793 | 0.678 | 0.917 | 0.728 | 0.838 | 0.901 | 0.995 | 0.906 | 0.842 | 0.917 | 0.918 | 0.907 | 0.957 | 0.949 |
| O=P1(NCCCl)OCCCN1CCCl (stereo not drawn) [Ifosfamide] | 0.864 | 1.05 | 0.9 | 1.1 | 0.744 | 0.789 | 0.862 | 0.78 | 0.855 | 0.939 | 0.927 | 0.933 | 1.03 | 1.05 | 0.745 | 0.794 | 0.906 | 0.688 | 0.863 | 0.836 |

Source: the supplement of paper PMC9174493
